Here are results for 10 molecules from the antibiotic and cytotoxicity screens of Wong et al. (2023).

The structures appear in SMILES notation. This is one part of the list.

For this test, the system named is HepG2. The test is described as follows: cytotoxicity call (relative viability < 0.9). The conditions noted are these: 10 µM.
With `C[C@H](CO)N1C[C@H](C)[C@@H](CN(C)S(=O)(=O)c2ccc(Cl)cc2)Oc2c(NC(=O)Nc3ccc(C(F)(F)F)cc3)cccc2C1=O`, the cytotoxicity call was “inactive”.

Consider `CCCNC(C)C(=O)Nc1ccccc1C.Cl` (stereo not given), for which the cytotoxicity call is “inactive”. Take `C[C@@H]1CN([C@@H](C)CO)C(=O)c2cccc(N(C)C)c2O[C@@H]1CN(C)S(C)(=O)=O`: the cytotoxicity call was “inactive”. With `C[N+](C)(C)CCCCNC(=O)[C@@H]1C[C@@H]2C(=O)N[C@@H](CCCC[N+](C)(C)C)C(=O)N2[C@@H]1c1ccc(O)cc1` the entry was “inactive”; with `C[C@@H]1CN([C@@H](C)CO)C(=O)c2cc(NC(=O)Nc3ccccc3)ccc2O[C@@H](C)CCCCO[C@H]1CN(C)S(=O)(=O)c1ccc(Cl)cc1`, “active”; with `C[C@@H]1CN([C@H](C)CO)C(=O)c2cc(NC(=O)NC3CCCCC3)ccc2O[C@@H](C)CCCCO[C@@H]1CN(C)S(=O)(=O)c1cccs1`, “inactive”.

Consider `C[C@@H]1CN([C@H](C)CO)C(=O)c2cc(NS(C)(=O)=O)ccc2O[C@@H]1CN(C)C(=O)Nc1ccc(C(F)(F)F)cc1`, for which the cytotoxicity call was “inactive”. In the case of `C[C@@H]1CN([C@@H](C)CO)C(=O)c2cc(NC(=O)c3ccncc3)ccc2O[C@@H](C)CCCCO[C@H]1CN(C)Cc1ccc(C(F)(F)F)cc1` it was “inactive”; in that of `C[C@H]1CN([C@@H](C)CO)C(=O)c2cc(NC(=O)c3ccncc3)ccc2O[C@H]1CN(C)S(=O)(=O)c1cn(C)cn1`, “inactive”; in that of `C[C@H](CO)N1C[C@H](C)[C@@H](CN(C)Cc2ccc(C(=O)O)cc2)OCCCC[C@H](C)Oc2ccc(NS(=O)(=O)c3ccccc3)cc2C1=O`, “inactive”.
